Biological target: Tie-2 receptor in EAhy926 cells (UniProt Q02763 23-1124, limits assumed)
Assay: cell-based or functional assay

UniProt Q02763, sequence (Q02763 23-1124 limits assumed): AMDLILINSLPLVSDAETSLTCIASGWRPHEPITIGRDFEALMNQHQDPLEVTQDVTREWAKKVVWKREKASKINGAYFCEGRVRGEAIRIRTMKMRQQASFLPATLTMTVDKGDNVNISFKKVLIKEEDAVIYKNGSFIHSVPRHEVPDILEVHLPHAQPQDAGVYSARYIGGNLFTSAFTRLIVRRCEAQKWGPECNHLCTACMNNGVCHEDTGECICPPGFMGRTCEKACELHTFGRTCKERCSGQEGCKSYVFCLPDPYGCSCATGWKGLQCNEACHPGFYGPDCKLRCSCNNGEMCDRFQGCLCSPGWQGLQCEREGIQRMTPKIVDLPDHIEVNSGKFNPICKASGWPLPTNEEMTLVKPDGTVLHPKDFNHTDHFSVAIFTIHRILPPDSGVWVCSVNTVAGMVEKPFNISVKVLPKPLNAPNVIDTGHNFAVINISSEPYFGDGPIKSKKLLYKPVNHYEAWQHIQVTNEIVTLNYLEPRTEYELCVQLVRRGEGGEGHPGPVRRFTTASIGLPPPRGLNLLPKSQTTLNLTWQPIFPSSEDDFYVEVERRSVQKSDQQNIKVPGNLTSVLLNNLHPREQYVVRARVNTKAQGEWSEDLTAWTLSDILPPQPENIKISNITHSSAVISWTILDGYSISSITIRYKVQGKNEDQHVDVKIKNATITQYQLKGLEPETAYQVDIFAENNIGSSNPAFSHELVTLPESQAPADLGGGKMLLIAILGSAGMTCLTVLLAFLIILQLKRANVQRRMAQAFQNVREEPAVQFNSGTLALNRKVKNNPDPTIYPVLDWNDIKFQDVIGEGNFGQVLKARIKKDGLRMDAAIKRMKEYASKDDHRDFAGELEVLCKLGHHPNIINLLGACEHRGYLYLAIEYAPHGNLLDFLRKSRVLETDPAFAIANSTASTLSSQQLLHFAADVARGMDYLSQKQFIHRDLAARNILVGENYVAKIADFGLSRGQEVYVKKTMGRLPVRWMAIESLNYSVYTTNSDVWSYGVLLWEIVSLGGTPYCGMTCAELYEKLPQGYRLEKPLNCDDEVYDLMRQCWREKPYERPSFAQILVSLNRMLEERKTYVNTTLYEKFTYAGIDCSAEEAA

B1: stable CHO clone-derived Ang-2-FD-Fc-FD protein (Fc fusion)
chain: DCAEVFKSGHTTNGIYTLTFPNSTEEIKAYCDMEAGGGGWTIIQRREDGSVDFQRTWKEYKVGFGNPSGEYWLGNEFVSQLTNQQRYVLKIHLKDWEGNEAYSLYEHFYLSSEELNYRIHLKGLTGTAGKISSISQPGNDFSTKDGDNDKCICKCSQMLTGGWWFDACGPSNLNGMYYPQRQNTNKFNGIKWYYWKGSGYSLKATTMMIRPADFGGPG[human IgG1 Fc skipped]GGGGSGAPRDCAEVFKSGHTTNGIYTLTFPNSTEEIKAYCDMEAGGGGWTIIQRREDGSVDFQRTWKEYKVGFGNPSGEYWLGNEFVSQLTNQQRYVLKIHLKDWEGNEAYSLYEHFYLSSEELNYRIHLKGLTGTAGKISSISQPGNDFSTKDGDNDKCICKCSQMLTGGWWFDACGPSNLNGMYYPQRQNTNKFNGIKWYYWKGSGYSLKATTMMIRPADF
  block of stable CHO clone-derived Ang-1-FD-Fc-FD-mediated Tie-2 receptor phosphorylation in EAhy926 cells: ≥ 40 fold molar excess of stable CHO clone-derived Ang-1-FD-Fc-FD
